Laboratory results reported in PubChem BioAssay AID1347165 (National Center for Advancing Translational Sciences (NCATS), 2019).
The whole screen tested about 220,000 compounds, of which about 5,700 (2.6%) were called active. The shares of active, inactive and inconclusive entries below differ from those in the screen. Calls follow the shape of the dose curve; as a rule, active = well fitted inhibition curve with a large enough effect; inconclusive = small, poorly fitted or top-dose-only effect; inactive = no such curve, though single readings can be large or run the other way. A potency beside an inconclusive call is a rough fit, not a confirmed value.
Also: nearly all actives have a fitted effect of over 70% in size.
For activity change, negative = inhibition in this document: 0% is about no effect.
Potency is read from the fitted curve at half-maximal effect; tags tell the direction and shape of the fitted curve.

What follows are compounds tested against Lysine-specific demethylase 5B (Homo sapiens) (UniProt Q9UGL1) (assay: Primary screen for KDM5B Histone Demethylases FDH-coupled qHTS). Details: FDH-coupled NADH fluorescence (FDH is formaldehyde dehydrogenase); activity change, negative = inhibition: at 57.7 µM (top of the series) unless noted.
Chain of UniProt Q9UGL1 (Q9UGL1 whole entry, looked up): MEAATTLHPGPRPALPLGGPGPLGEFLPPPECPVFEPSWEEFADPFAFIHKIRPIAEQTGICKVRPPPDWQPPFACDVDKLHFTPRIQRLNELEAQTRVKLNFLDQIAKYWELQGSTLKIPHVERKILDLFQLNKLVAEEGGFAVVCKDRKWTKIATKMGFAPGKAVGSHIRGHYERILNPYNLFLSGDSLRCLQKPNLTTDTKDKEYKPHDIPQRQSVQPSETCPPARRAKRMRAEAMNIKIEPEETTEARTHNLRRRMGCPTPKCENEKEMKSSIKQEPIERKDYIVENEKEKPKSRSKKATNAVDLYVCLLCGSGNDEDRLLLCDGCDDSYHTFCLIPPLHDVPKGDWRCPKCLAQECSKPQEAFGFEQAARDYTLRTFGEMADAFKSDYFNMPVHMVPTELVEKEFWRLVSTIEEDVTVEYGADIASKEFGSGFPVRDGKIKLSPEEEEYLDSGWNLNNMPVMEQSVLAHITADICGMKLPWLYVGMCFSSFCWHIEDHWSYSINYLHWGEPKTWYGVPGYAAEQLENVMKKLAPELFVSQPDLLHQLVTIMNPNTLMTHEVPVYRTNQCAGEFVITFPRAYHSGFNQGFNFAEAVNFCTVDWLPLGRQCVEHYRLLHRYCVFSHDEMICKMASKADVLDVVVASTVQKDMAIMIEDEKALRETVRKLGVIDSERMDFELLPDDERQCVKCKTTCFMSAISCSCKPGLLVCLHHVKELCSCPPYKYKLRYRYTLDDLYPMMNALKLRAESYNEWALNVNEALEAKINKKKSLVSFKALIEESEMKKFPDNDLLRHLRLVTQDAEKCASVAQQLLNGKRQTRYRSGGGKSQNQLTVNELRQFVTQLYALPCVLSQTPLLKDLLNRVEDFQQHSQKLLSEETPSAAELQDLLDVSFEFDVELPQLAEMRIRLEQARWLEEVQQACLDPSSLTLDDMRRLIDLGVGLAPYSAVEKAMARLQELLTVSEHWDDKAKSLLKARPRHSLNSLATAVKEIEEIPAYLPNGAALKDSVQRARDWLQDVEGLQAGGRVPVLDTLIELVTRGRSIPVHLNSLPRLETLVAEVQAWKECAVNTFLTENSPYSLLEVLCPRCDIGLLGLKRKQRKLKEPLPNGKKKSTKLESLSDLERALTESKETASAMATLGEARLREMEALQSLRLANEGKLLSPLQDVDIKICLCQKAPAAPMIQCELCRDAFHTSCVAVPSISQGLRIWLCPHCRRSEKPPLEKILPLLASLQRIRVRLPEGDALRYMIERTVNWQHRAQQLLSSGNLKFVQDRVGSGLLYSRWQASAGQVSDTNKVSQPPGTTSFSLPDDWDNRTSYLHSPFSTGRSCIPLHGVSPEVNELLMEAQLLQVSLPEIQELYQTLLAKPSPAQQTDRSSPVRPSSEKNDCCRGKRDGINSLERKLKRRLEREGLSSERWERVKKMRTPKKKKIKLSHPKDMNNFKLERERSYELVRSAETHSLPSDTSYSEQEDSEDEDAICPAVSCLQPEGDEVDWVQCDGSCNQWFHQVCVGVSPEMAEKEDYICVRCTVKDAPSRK
Outline: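 Measured: NADH fluorescence change, 30 min, RT. System: KDM5BΔAP 200 nM final, H3K4me3 peptide, α-KG, Fe(II), ascorbate, NAD⁺ plus FDH, pH 7.5 HEPES. Compounds: titrated, 10 min pre-incubation with enzyme.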
For `CC1=C(C(=O)Nc2ccc(C)cn2)C(c2ccc(N(C)C)cc2)C2=C(CCCC2=O)N1` (centres undefined), the “activity change, negative = inhibition” value was inactive: -9.01%. In the case of `CN(CCOc1cccc(Cl)c1)Cc1cc(=O)oc2cc(O)ccc12`, the Potency is reported as inconclusive: 31.6 µM [inhibitor, partial curve, poor fit]. In the case of `O=C1/C(=C/c2ccc(Br)cc2)C(c2ccccc2)Oc2ccccc21` (centres undefined), the “activity change, negative = inhibition” value is reported as inactive: 13%. `CC1(C)Cc2c(sc3c2c(=O)n(CCCO)c(=O)n3Cc2ccccc2)CO1` was tested, and the “activity change, negative = inhibition” value was inactive: 15.1%. With `CCc1cc2c(CSc3nc(C)cc(C)c3C#N)cc(=O)oc2cc1O` the Potency was inconclusive: 39.8 µM [inhibitor, single point]. `O=C(O)CCn1ncc2cc(OCC3CCN(C(=O)Oc4ccccc4Cl)CC3)ccc21` was tested, and the “activity change, negative = inhibition” value was inactive: 14.6%. For `Cn1cc(CN2CCNc3cnc(-c4ccccc4)cc3C2)cn1`, the Potency was active: 28.2 µM. In the case of `O=C(NCCc1csc(-c2cnccn2)n1)C1CC2(CCNCC2)CN1` (centres undefined), the Potency is reported as active: 28.2 µM. For `CC1CCN(S(=O)(=O)c2ccc(C(=O)Nc3sc4c(c3C(N)=O)CC(C)(C)NC4(C)C)cc2)CC1`, the Potency was inconclusive: 35.5 µM [inhibitor, single point]. `Cc1cccc(C)c1-n1ncc(C(=O)N2CCN(c3ccccn3)CC2)c1C1CCN(C(=O)OC(C)(C)C)CC1` was tested, and the Potency was inconclusive: 14.1 µM [inhibitor, partial curve, poor fit]. For `Cc1nn(C)c2nc(-c3ccccn3)nc(NCC(c3ccco3)N(C)C)c12` (centres undefined), the Potency was inconclusive: 25.1 µM [inhibitor, single point]. In the case of `Cc1ccc(SCc2ccc(C(=O)Nc3cccc(C)c3C)cc2)cc1`, the “activity change, negative = inhibition” value is reported as inactive: 16.2%. In the case of `CCCN1CCC2(CCN([S+](=O)([O-])c3ccccc3)CC2)Oc2ccccc21`, the Potency is reported as inconclusive: 35.5 µM [inhibitor, single point]. With `COc1ccc(-c2ccnc(N[C@H]3CO[C@H]4[C@@H]3OC[C@@H]4NC(=O)CC3(CC(=O)O)CCCC3)n2)cc1` the Potency was active: 28.2 µM. In the case of `CCC(=O)N1CCN(c2oc(/C=C/c3ccc(C)cc3)nc2C#N)CC1`, the “activity change, negative = inhibition” value is reported as inactive: -1850%. With `COc1cccc(Nc2ccc3c(n2)C(C)(C(=O)NC2CCC2)CN(C)C3)c1` (centres undefined) the Potency was inconclusive: 22.4 µM [inhibitor, partial curve]. With `Cc1ccc(NC(=O)N2CCCC(Cn3cnc4cccnc43)C2)c(Cl)c1` (centres undefined) the “activity change, negative = inhibition” value was inactive: 21.1%. For `COc1ccc(-c2cc3c(=O)n(CCNC(=O)c4ccc(F)c(F)c4)ccn3n2)cc1`, the Potency was inconclusive: 15.8 µM [inhibitor, partial curve, poor fit]. In the case of `COc1ccc(/C=C/C(=O)NCCCNC(=O)/C=C/c2ccc(OC)c(OC)c2)cc1OC`, the Potency is reported as inconclusive: 20 µM [inhibitor, single point]. For `Cc1ccc(C(=O)/C=C/c2cccc(OC(C)C(=O)O)c2)o1` (centres undefined), the “activity change, negative = inhibition” value was inactive: 5.11%. With `CCCc1c(C)c2ccc(OCC(=O)OCC)cc2oc1=O` the Potency was inconclusive: 25.1 µM [inhibitor, partial curve, poor fit]. `CC(C)OCc1ccccc1CNC(=O)c1nccnc1N` was tested, and the Potency was inconclusive: 22.4 µM [inhibitor, partial curve, poor fit]. For `CNC(=O)c1ccc(Nc2nnc(-c3ccc(C)c(S(=O)(=O)N(C)C)c3)c3ccccc23)cc1`, the Potency was inconclusive: 35.5 µM [inhibitor, partial curve, poor fit]. `CC(C)Oc1ccc(CN2CC(C(=O)NCc3ccncc3)C3(CCOCC3)C2)cc1` (centres undefined) was tested, and the Potency was inconclusive: 35.5 µM [inhibitor, single point]. With `Cc1ccc(NC(=O)CCc2ncc(-c3ccc(F)cc3)o2)c(C)c1` the “activity change, negative = inhibition” value was inactive: 17.5%. With `COC(=O)[C@@H]1Cc2ncn(C(C)C)c2CN1S(=O)(=O)c1cccc2cccnc12` the Potency was inconclusive: 28.2 µM [inhibitor, single point]. In the case of `COCCNC(=O)/C(C#N)=C\c1ccc(C(F)(F)F)cc1`, the “activity change, negative = inhibition” value is reported as inactive: -5.77%. With `O=C1c2cnc(-c3ccc(Oc4ccccc4)cc3)nc2OCCN1CC1CC1` the Potency was active: 35.5 µM. For `CCc1ccccc1NC(=O)CSc1nc(-c2ccccc2OC)nc2c1Cc1c(CO)cnc(C)c1O2`, the Potency was inconclusive: 35.5 µM [inhibitor, single point]. With `CC(=O)c1cc(C(=O)Nc2cc(C)cc(C)c2)c2ccccn12` the Potency was inconclusive: 31.6 µM [inhibitor, partial curve, poor fit]. `COC(=O)C(CCSC)NC(=O)c1cc2c(n(-c3ccc(C)cc3)c1=O)CC(C)(C)CC2=O` (centres undefined) was tested, and the Potency was inconclusive: 15.8 µM [inhibitor, partial curve, poor fit]. In the case of `CC(C)OCCCNc1nc2ccccc2nc1NS(=O)(=O)c1ccccc1`, the Potency is reported as inconclusive: 22.4 µM [inhibitor, partial curve, poor fit]. For `CCNC(=O)N[C@H]1CO[C@H]2[C@@H]1OC[C@@H]2Nc1nccc(-c2cccc(F)c2)n1`, the Potency was active: 31.6 µM. In the case of `CCOC(CNc1cc(C)nc2c(-c3ccccc3OC)c(C)nn12)OCC`, the Potency is reported as inconclusive: 39.8 µM [inhibitor, single point]. `O=C(NC1CCCC1)N1CC(Oc2ccccc2-c2nc(-c3ccccc3)no2)C1` was tested, and the Potency was active: 28.2 µM. With `CN1CCSc2ccc(C(=O)Nc3cccc(F)c3)cc21` the Potency was inconclusive: 25.1 µM [inhibitor, partial curve, poor fit]. `CNc1oc(-c2ccccc2)nc1S(=O)(=O)c1ccc(C)cc1` was tested, and the Potency was inconclusive: 25.1 µM [inhibitor, partial curve, poor fit]. With `c1ccc2oc(-c3nccn3CCc3noc(C4CCCO4)n3)cc2c1` (centres undefined) the Potency was inconclusive: 17.8 µM [inhibitor, partial curve]. With `CCC(C)(C)C(=O)NCc1ccc(OC)cc1` the “activity change, negative = inhibition” value was inactive: 6.66%. For `N#Cc1ccc(CN2CCC(c3nc4ccc(F)cc4c(=O)[nH]3)CC2)cc1`, the “activity change, negative = inhibition” value was inactive: -0.543% [at 115 µM]. `Cc1ccc(SCc2cc(=O)oc3c(C)c(C)ccc23)cc1` was tested, and the “activity change, negative = inhibition” value was inactive: 9.63%. With `CN(C)c1cccc(-c2nc(-c3nnn4c3COC(c3ccc(Cl)cc3)C4)no2)c1` (centres undefined) the Potency was inconclusive: 2.82 µM [inhibitor, full curve, poor fit]. With `COc1ccc(/C=C(\C#N)C(=O)Nc2ccccc2C(=O)O)c(OC)c1` the “activity change, negative = inhibition” value was inactive: 15%. In the case of `Cc1cc(C)nc(-n2nc(C)c3c2N(Cc2ccccc2)C(=O)CC3c2ccccc2)n1` (centres undefined), the “activity change, negative = inhibition” value is reported as inactive: 21.9%.
